{
  "source": "the supplement of paper PMC8728848",
  "binders": {"B1": {"name": "SialidaseA (Arthrobacter ureafaciens) (protein)", "chain": "MRSNSTSAPSLVRRAATGVLTCAVSIGLLAGLGLPAQAAPTPPNSPTLPPGSFSETNLAADRTAANFFYRIPALTYLGNDVVLAAWDGRPGSAADAPNPNSIVQRRSTDGGKTWGPVQVIAAGHVADASGPRYGYSDPSYIYDAEANKVFAFFVYSKDQGFGGSQFGNDDADRNVISSAVIESSDAGVTWSQPRLITSVTKPGTSKTNPAAGDVRSNFASSGEGIQLKYGPHKGRLIQQYAGDVRQADGSNKIQAYSVYSDDHGVTWHKGANVGDRMDENKTVELSDGRVLLNSRDNANRGYRKVAVSTDGGATYGPVSQDTELPDPANNGAIARMFPNAAQGSADAKKLIFTNANSKTGRENVSARVSCDDGETWPGVRTIRSGFSAYSTVTRLADGKFGVLYEGNYTDNMPFATFDDAWLNYVCAPLAVPAVNIAPSATQEVPVTVTNQEATTLSGATATVYTPSGWSATTVPVPDVAPGASVTVTVALTAPADASGPRSLNAAFTTADGRVSQFTFTATTPVAPQVGLTITGSAPARDVAANPYQAGDVLGYTLNVKSTANVAANSVPLTGTFDSGFLPPAAPNCRYNNLAAGASYNCTTAKHTITAADMERGYFVPEATFSITSTTTPSLTKTVQFTGAAVALRDGLISADISGARTDVGRDLATRPYAAGELVPYAFTVKNTSPFVEQVVPTAGNFSPFLPAGAGNCRYLSLPAGQSYECATPRHAVTAEEVEQGFFVPDTTWEVSAAGQSTRTYRINGGEVDLLVRDAALSATVVAEWKDADGDRFASAGDPVTFTYTVGNAGNVALTGLEAPDAGISLPFLAPGDTATATREHVLTAADVAGGSLAASAFEATARNGSKEVTATAEGQPLELKVQPAQPSKEPELTVQDLEDQTPPFDLGTAFKYRTGQKVSLAGLEYGQWYYVYLNKTGYRLGWMFPTTGDTVEFILPPEVRNGRDDVVVLDKDGRRVSFDRLQVTPKGEKI"}},
  "test_in_all_cases": "glycan array binding signal (z-score within array); higher = stronger binding",
  "conditions_in_all_cases": "glycan notation: IUPAC condensed, linker removed",
  "key": {"[1]": {"molecular_target": "Fuc(a1-2)[Gal(a1-4)]Gal(b1-4)GlcNAc", "method_in_brief": "(§1)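 The binding signal is a Z-score computed within each array. Data were drawn from 3228 arrays in the Consortium for Functional Glycomics database, restricted to those with a known protein sequence. Scores were averaged over arrays of the same protein sequence at different concentrations or buffers, and over linkers, and negative values can be taken as non-binding.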"}, "[2]": {"molecular_target": "Fuc(a1-2)[GalNAc(a1-3)]Gal", "method_in_brief": "as §1"}, "[3]": {"molecular_target": "Fuc(a1-2)[GalNAc(a1-3)]Gal(b1-3)GalNAc(a1-3)[Fuc(a1-2)]Gal(b1-4)GlcNAc", "method_in_brief": "as §1"}, "[4]": {"molecular_target": "Fuc(a1-2)[GalNAc(a1-3)]Gal(b1-3)GalNAc(b1-3)Gal(a1-4)Gal(b1-4)Glc", "method_in_brief": "as §1"}, "[5]": {"molecular_target": "Fuc(a1-2)[GalNAc(a1-3)]Gal(b1-3)GlcNAc", "method_in_brief": "as §1"}, "[6]": {"molecular_target": "Fuc(a1-2)[GalNAc(a1-3)]Gal(b1-3)GlcNAc(b1-2)Man(a1-3)[Fuc(a1-2)[GalNAc(a1-3)]Gal(b1-3)GlcNAc(b1-2)Man(a1-6)]Man(b1-4)GlcNAc(b1-4)GlcNAc", "method_in_brief": "as §1"}, "[7]": {"molecular_target": "Fuc(a1-2)[GalNAc(a1-3)]Gal(b1-3)GlcNAc(b1-2)Man(a1-3)[Fuc(a1-2)[GalNAc(a1-3)]Gal(b1-3)GlcNAc(b1-2)Man(a1-6)]Man(b1-4)GlcNAc(b1-4)[Fuc(a1-6)]GlcNAc", "method_in_brief": "as §1"}, "[8]": {"molecular_target": "Fuc(a1-2)[GalNAc(a1-3)]Gal(b1-3)GlcNAc(b1-3)GalNAc", "method_in_brief": "as §1"}, "[9]": {"molecular_target": "Fuc(a1-2)[GalNAc(a1-3)]Gal(b1-3)GlcNAc(b1-6)GalNAc", "method_in_brief": "as §1"}, "[10]": {"molecular_target": "Fuc(a1-2)[GalNAc(a1-3)]Gal(b1-4)Glc", "method_in_brief": "as §1"}, "[11]": {"molecular_target": "Fuc(a1-2)[GalNAc(a1-3)]Gal(b1-4)GlcNAc", "method_in_brief": "as §1"}, "[12]": {"molecular_target": "Fuc(a1-2)[GalNAc(a1-3)]Gal(b1-4)GlcNAc(b1-2)Man", "method_in_brief": "as §1"}, "[13]": {"molecular_target": "Fuc(a1-2)[GalNAc(a1-3)]Gal(b1-4)GlcNAc(b1-2)Man(a1-3)[Fuc(a1-2)[GalNAc(a1-3)]Gal(b1-4)GlcNAc(b1-2)Man(a1-6)]Man(b1-4)GlcNAc(b1-4)GlcNAc", "method_in_brief": "as §1"}, "[14]": {"molecular_target": "Fuc(a1-2)[GalNAc(a1-3)]Gal(b1-4)GlcNAc(b1-2)Man(a1-3)[Fuc(a1-2)[GalNAc(a1-3)]Gal(b1-4)GlcNAc(b1-2)Man(a1-6)]Man(b1-4)GlcNAc(b1-4)[Fuc(a1-6)]GlcNAc", "method_in_brief": "as §1"}, "[15]": {"molecular_target": "Fuc(a1-2)[GalNAc(a1-3)]Gal(b1-4)GlcNAc(b1-3)Gal(b1-4)GlcNAc", "method_in_brief": "as §1"}, "[16]": {"molecular_target": "Fuc(a1-2)[GalNAc(a1-3)]Gal(b1-4)GlcNAc(b1-3)Gal(b1-4)GlcNAc(b1-3)Gal(b1-4)GlcNAc", "method_in_brief": "as §1"}, "[17]": {"molecular_target": "Fuc(a1-2)[GalNAc(a1-3)]Gal(b1-4)GlcNAc(b1-3)GalNAc", "method_in_brief": "as §1"}, "[18]": {"molecular_target": "Fuc(a1-2)[GalNAc(a1-3)]Gal(b1-4)GlcNAc(b1-3)[Fuc(a1-2)[GalNAc(a1-3)]Gal(b1-4)GlcNAc(b1-6)]GalNAc", "method_in_brief": "as §1"}, "[19]": {"molecular_target": "Fuc(a1-2)[GalNAc(a1-3)]Gal(b1-4)GlcNAc(b1-6)GalNAc", "method_in_brief": "as §1"}, "[20]": {"molecular_target": "Fuc(a1-2)[GalNAc(a1-3)]Gal(b1-4)[Fuc(a1-3)]GlcNAc", "method_in_brief": "as §1"}, "[21]": {"molecular_target": "Fuc(a1-2)[GalNAc(a1-3)]Gal(b1-4)[Fuc(a1-3)]GlcNAc(b1-3)GalNAc", "method_in_brief": "as §1"}, "[22]": {"molecular_target": "Fuc(a1-2)[GalNAc(a1-4)]Gal(b1-4)GlcNAc", "method_in_brief": "as §1"}, "[23]": {"molecular_target": "Fuc(a1-2)[GalNAc(b1-3)]Gal", "method_in_brief": "as §1"}},
  "note": "This is one part of the list.",
  "data": [
    {"binder": "B1", "values": [
      {"measurement": "glycan array binding signal (z-score)", "setting": "[1]", "result": 0.016},
      {"measurement": "glycan array binding signal (z-score)", "setting": "[2]", "result": -0.307},
      {"measurement": "glycan array binding signal (z-score)", "setting": "[3]", "result": -0.42},
      {"measurement": "glycan array binding signal (z-score)", "setting": "[4]", "result": -0.538},
      {"measurement": "glycan array binding signal (z-score)", "setting": "[5]", "result": -0.376},
      {"measurement": "glycan array binding signal (z-score)", "setting": "[6]", "result": -0.386},
      {"measurement": "glycan array binding signal (z-score)", "setting": "[7]", "result": -0.683},
      {"measurement": "glycan array binding signal (z-score)", "setting": "[8]", "result": -0.124},
      {"measurement": "glycan array binding signal (z-score)", "setting": "[9]", "result": -0.737},
      {"measurement": "glycan array binding signal (z-score)", "setting": "[10]", "result": -0.498},
      {"measurement": "glycan array binding signal (z-score)", "setting": "[11]", "result": -0.821},
      {"measurement": "glycan array binding signal (z-score)", "setting": "[12]", "result": -0.707},
      {"measurement": "glycan array binding signal (z-score)", "setting": "[13]", "result": -0.021},
      {"measurement": "glycan array binding signal (z-score)", "setting": "[14]", "result": -0.451},
      {"measurement": "glycan array binding signal (z-score)", "setting": "[15]", "result": -0.432},
      {"measurement": "glycan array binding signal (z-score)", "setting": "[16]", "result": -0.168},
      {"measurement": "glycan array binding signal (z-score)", "setting": "[17]", "result": -0.801},
      {"measurement": "glycan array binding signal (z-score)", "setting": "[18]", "result": -0.516},
      {"measurement": "glycan array binding signal (z-score)", "setting": "[19]", "result": -0.733},
      {"measurement": "glycan array binding signal (z-score)", "setting": "[20]", "result": -0.364},
      {"measurement": "glycan array binding signal (z-score)", "setting": "[21]", "result": -0.145},
      {"measurement": "glycan array binding signal (z-score)", "setting": "[22]", "result": -0.14},
      {"measurement": "glycan array binding signal (z-score)", "setting": "[23]", "result": -0.317}
    ]}
  ]
}
